Measurements: patent US20150237858A1, “METHOD OF CONTROLLING RYANODINE-MODULATOR INSECTICIDE RESISTANT INSECTS” (BASF SE, priority 2012, published 2015)
Read-outs that look alike come from different tables or passages of the source.

System: Plutella xylostella (Cebu Strain)
[1] = Plutella xylostella (Cebu Strain), 3DAI, May 2012
[2] = Plutella xylostella Cebu strain, third instar larvae, leaf dip, 3DAI, May 2011

Compound | LC50 [1] | LC90 [1] | LC50 [2] | LC90 [2] | control (in place of LC50/LC90) (at 1000 ppm, Plutella xylostella Cebu strain, 3DAI, May 2011) | efficacy against the field collected Cebu strain of Plutella xylostella (summary of tables B.1A and B.1B)
CNC(=O)c1cc(Cl)cc(C)c1NC(=O)c1cc(Br)nn1-c1ncccc1Cl [Chlorantraniliprole, chlorantraniliprole] | 40.7 ppm | 98.6 ppm | 16.1 ppm | 37.3 ppm |  | 
CCS(CC)=NC(=O)c1cc(Cl)cc(C)c1NC(=O)c1cc(C(F)(F)F)nn1-c1ncccc1Cl [Compound I-11, 2-(3-chloro-2-pyridyl)-N-[2-methyl-4-chloro-6-[(diethyl-λ^4-sulfanylidene)carbamoyl]phenyl]-5-(trifluoromethyl)pyrazole-3-carboxamide] |  |  | 2.22 ppm | 4.93 ppm |  | 
CCS(CC)=NC(=O)c1cc(Cl)cc(Cl)c1NC(=O)c1cc(C(F)(F)F)nn1-c1ncccc1Cl [Compound I-16, 2-(3-chloro-2-pyridyl)-N-[2,4-dichloro-6-[(diethyl-λ^4-sulfanylidene)carbamoyl]phenyl]-5-(trifluoromethyl)pyrazole-3-carboxamide] |  |  | 1.44 ppm | 3.06 ppm |  | 
Cc1cc(Cl)cc(C(=O)N=S(C(C)C)C(C)C)c1NC(=O)c1cc(C(F)(F)F)nn1-c1ncccc1Cl [Compound I-21, 2-(3-chloro-2-pyridyl)-N-[2-methyl-4-chloro-6-[(bis-2-propyl-λ^4-sulfanylidene)carbamoyl]phenyl]-5-(trifluoromethyl)pyrazole-3-carboxamide] | 2.64 ppm | 8.37 ppm |  |  |  | 
CC(C)S(=NC(=O)c1cc(Cl)cc(Cl)c1NC(=O)c1cc(C(F)(F)F)nn1-c1ncccc1Cl)C(C)C [Compound I-26, 2-(3-chloro-2-pyridyl)-N-[2,4-dichloro-6-[(bis-2-propyl-λ^4-sulfanylidene)carbamoyl]phenyl]-5-(trifluoromethyl)pyrazole-3-carboxamide] |  |  | 0.82 ppm | 1.55 ppm |  | 
CNC(=O)c1cc(C#N)cc(C)c1NC(=O)c1cc(Br)nn1-c1ncccc1Cl [Cyantraniliprole, cyantraniliprole] | 25.7 ppm | 97.0 ppm |  |  |  | 
Cc1cc(C(F)(C(F)(F)F)C(F)(F)F)ccc1NC(=O)c1cccc(I)c1C(=O)NC(C)(C)CS(C)(=O)=O [Flubendiamide, flubendiamide] | 902 ppm | 2703 ppm |  |  | insufficient control at 1000 ppm | only weak efficacies
